This is an account of results in publication PMC12820563.

This is one part of the list. The list includes weakly bound sequences.

This experiment has as its target T1, MBP-FoxP3dN (UniProt Q99JB6).
T1 sequence: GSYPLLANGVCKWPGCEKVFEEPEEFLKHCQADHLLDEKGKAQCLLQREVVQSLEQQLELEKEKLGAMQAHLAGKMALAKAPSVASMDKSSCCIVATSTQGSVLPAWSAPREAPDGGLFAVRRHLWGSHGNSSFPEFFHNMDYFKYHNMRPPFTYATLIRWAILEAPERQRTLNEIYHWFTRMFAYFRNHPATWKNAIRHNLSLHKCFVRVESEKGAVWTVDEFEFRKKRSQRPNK
Description: PD-seq (MBP pull-down with sequencing). The conditions noted are these: 20 mM Tris-HCl pH 7.5, 100 mM NaCl, 1.5 mM MgCl2, 0.4 uM protein, 0.1 uM dsDNA library, 30 min, room temperature, amylose pull-down; high values mean tight binding; double strand, one strand shown.
Consider “GATGATTGTTCTCCCAGCTGATGAATTTATCTTCTCGAGTAAACAAATTTTCCTAATCTTTCTGTTCAAGCGCCATCTAC”, for which the binding signal (RPM ratio (pull-down/input)) is 0.765.
The value for “GATGATTGTTCTCCCAGCTGATGAATTGAATTAGTCGAGTAAACAAATTTTCCTAATCTTTCTGTTCAAGCGCCATCTAC” was 0.767.
On to “GATGATTGTTCTCCCAGCTGATGAATTACATGTATCGAGTAAACAAATTTTCCTAATCTTTCTGTTCAAGCGCCATCTAC”, for which the binding signal (RPM ratio (pull-down/input)) was 1.16.
The value for “GATGATTGTTCTCCCAGCTGATGAATTTTGATGGTCGAGTAAACAAATTTTCCTAATCTTTCTGTTCAAGCGCCATCTAC” was 1.51; that for “GATGATTGTTCTCCCAGCTGATGAATTTGTTGCTTCGAGTAAACAAATTTTCCTAATCTTTCTGTTCAAGCGCCATCTAC” was 6.86.
“GATGATTGTTCTCCCAGCTGATGAATTACTCTAATCGAGTAAACAAATTTTCCTAATCTTTCTGTTCAAGCGCCATCTAC”: the binding signal (RPM ratio (pull-down/input)) came out at 0.269.
In the case of “GATGATTGTTCTCCCAGCTGATGAATTGGCCAATTCGAGTAAACAAATTTTCCTAATCTTTCTGTTCAAGCGCCATCTAC”, the binding signal (RPM ratio (pull-down/input)) worked out at 0.309.
The value for “GATGATTGTTCTCCCAGCTGATGAATTGACCGGATCGAGTAAACAAATTTTCCTAATCTTTCTGTTCAAGCGCCATCTAC” was 0.211; that for “GATGATTGTTCTCCCAGCTGATGAATTGGCTCTATCGAGTAAACAAATTTTCCTAATCTTTCTGTTCAAGCGCCATCTAC” was 0.377; that for “GATGATTGTTCTCCCAGCTGATGAATTAAACTCGTCGAGTAAACAAATTTTCCTAATCTTTCTGTTCAAGCGCCATCTAC” was 0.319.
The value for “GATGATTGTTCTCCCAGCTGATGAATTGGGTTAGTCGAGTAAACAAATTTTCCTAATCTTTCTGTTCAAGCGCCATCTAC” was 0.756; that for “GATGATTGTTCTCCCAGCTGATGAATTCTTACATTCGAGTAAACAAATTTTCCTAATCTTTCTGTTCAAGCGCCATCTAC” was 0.346.
The value for “GATGATTGTTCTCCCAGCTGATGAATTGATTACATCGAGTAAACAAATTTTCCTAATCTTTCTGTTCAAGCGCCATCTAC” was 1.48; that for “GATGATTGTTCTCCCAGCTGATGAATTCCTGTTTTCGAGTAAACAAATTTTCCTAATCTTTCTGTTCAAGCGCCATCTAC” was 0.929; that for “GATGATTGTTCTCCCAGCTGATGAATTACAGATCTCGAGTAAACAAATTTTCCTAATCTTTCTGTTCAAGCGCCATCTAC” was 0.418.
In the case of “GATGATTGTTCTCCCAGCTGATGAATTGGATTTATCGAGTAAACAAATTTTCCTAATCTTTCTGTTCAAGCGCCATCTAC”, the binding signal (RPM ratio (pull-down/input)) stood at 1.47.
The value for “GATGATTGTTCTCCCAGCTGATGAATTAACTCATTCGAGTAAACAAATTTTCCTAATCTTTCTGTTCAAGCGCCATCTAC” was 0.384; that for “GATGATTGTTCTCCCAGCTGATGAATTGCGCGGTTCGAGTAAACAAATTTTCCTAATCTTTCTGTTCAAGCGCCATCTAC” was 1.15.
The value for “GATGATTGTTCTCCCAGCTGATGAATTTCCCGACTCGAGTAAACAAATTTTCCTAATCTTTCTGTTCAAGCGCCATCTAC” was 0.21; that for “GATGATTGTTCTCCCAGCTGATGAATTAGTCTGTTCGAGTAAACAAATTTTCCTAATCTTTCTGTTCAAGCGCCATCTAC” was 0.826.
For the sequence “GATGATTGTTCTCCCAGCTGATGAATTGCTGTGATCGAGTAAACAAATTTTCCTAATCTTTCTGTTCAAGCGCCATCTAC”, the binding signal (RPM ratio (pull-down/input)) came out at 1.09.
The value for “GATGATTGTTCTCCCAGCTGATGAATTCGTTATTTCGAGTAAACAAATTTTCCTAATCTTTCTGTTCAAGCGCCATCTAC” was 3.66.
The value for “GATGATTGTTCTCCCAGCTGATGAATTTAAGACTTCGAGTAAACAAATTTTCCTAATCTTTCTGTTCAAGCGCCATCTAC” was 0.399; that for “GATGATTGTTCTCCCAGCTGATGAATTGTGCTTCTCGAGTAAACAAATTTTCCTAATCTTTCTGTTCAAGCGCCATCTAC” was 2.84.
The value for “GATGATTGTTCTCCCAGCTGATGAATTACCGCCTTCGAGTAAACAAATTTTCCTAATCTTTCTGTTCAAGCGCCATCTAC” was 2.97.
As to “GATGATTGTTCTCCCAGCTGATGAATTACTAGTTTCGAGTAAACAAATTTTCCTAATCTTTCTGTTCAAGCGCCATCTAC”, the binding signal (RPM ratio (pull-down/input)) amounted to 0.416.
The value for “GATGATTGTTCTCCCAGCTGATGAATTGCCTCCCTCGAGTAAACAAATTTTCCTAATCTTTCTGTTCAAGCGCCATCTAC” was 0.938; that for “GATGATTGTTCTCCCAGCTGATGAATTTGCGTATTCGAGTAAACAAATTTTCCTAATCTTTCTGTTCAAGCGCCATCTAC” was 4.16.
The value for “GATGATTGTTCTCCCAGCTGATGAATTTATCCATTCGAGTAAACAAATTTTCCTAATCTTTCTGTTCAAGCGCCATCTAC” was 0.568; that for “GATGATTGTTCTCCCAGCTGATGAATTCAGTCAGTCGAGTAAACAAATTTTCCTAATCTTTCTGTTCAAGCGCCATCTAC” was 0.273.
The value for “GATGATTGTTCTCCCAGCTGATGAATTCTATTACTCGAGTAAACAAATTTTCCTAATCTTTCTGTTCAAGCGCCATCTAC” was 0.836; that for “GATGATTGTTCTCCCAGCTGATGAATTGCAAAAATCGAGTAAACAAATTTTCCTAATCTTTCTGTTCAAGCGCCATCTAC” was 0.529; that for “GATGATTGTTCTCCCAGCTGATGAATTTTACCCCTCGAGTAAACAAATTTTCCTAATCTTTCTGTTCAAGCGCCATCTAC” was 0.257.
For “GATGATTGTTCTCCCAGCTGATGAATTAACACAATCGAGTAAACAAATTTTCCTAATCTTTCTGTTCAAGCGCCATCTAC”, the binding signal (RPM ratio (pull-down/input)) came to 0.685.
The value for “GATGATTGTTCTCCCAGCTGATGAATTTCGGGGGTCGAGTAAACAAATTTTCCTAATCTTTCTGTTCAAGCGCCATCTAC” was 0.472; that for “GATGATTGTTCTCCCAGCTGATGAATTGGGAGACTCGAGTAAACAAATTTTCCTAATCTTTCTGTTCAAGCGCCATCTAC” was 0.449.
The value for “GATGATTGTTCTCCCAGCTGATGAATTTGTGCTATCGAGTAAACAAATTTTCCTAATCTTTCTGTTCAAGCGCCATCTAC” was 2.26; that for “GATGATTGTTCTCCCAGCTGATGAATTGAAATTGTCGAGTAAACAAATTTTCCTAATCTTTCTGTTCAAGCGCCATCTAC” was 0.511.
As to “GATGATTGTTCTCCCAGCTGATGAATTCAAGTTATCGAGTAAACAAATTTTCCTAATCTTTCTGTTCAAGCGCCATCTAC”, the binding signal (RPM ratio (pull-down/input)) came out at 0.534.
The value for “GATGATTGTTCTCCCAGCTGATGAATTTCCTCGCTCGAGTAAACAAATTTTCCTAATCTTTCTGTTCAAGCGCCATCTAC” was 0.215; that for “GATGATTGTTCTCCCAGCTGATGAATTAGGCTGATCGAGTAAACAAATTTTCCTAATCTTTCTGTTCAAGCGCCATCTAC” was 0.537; that for “GATGATTGTTCTCCCAGCTGATGAATTGTCTTCGTCGAGTAAACAAATTTTCCTAATCTTTCTGTTCAAGCGCCATCTAC” was 0.427.
On to “GATGATTGTTCTCCCAGCTGATGAATTCTCGTCGTCGAGTAAACAAATTTTCCTAATCTTTCTGTTCAAGCGCCATCTAC”, for which the binding signal (RPM ratio (pull-down/input)) turned out to be 0.364.
The value for “GATGATTGTTCTCCCAGCTGATGAATTATGGCAATCGAGTAAACAAATTTTCCTAATCTTTCTGTTCAAGCGCCATCTAC” was 2.38.
The value for “GATGATTGTTCTCCCAGCTGATGAATTGGAGGAATCGAGTAAACAAATTTTCCTAATCTTTCTGTTCAAGCGCCATCTAC” was 0.191.
For the sequence “GATGATTGTTCTCCCAGCTGATGAATTAGTTATCTCGAGTAAACAAATTTTCCTAATCTTTCTGTTCAAGCGCCATCTAC”, the binding signal (RPM ratio (pull-down/input)) amounted to 3.59.
The value for “GATGATTGTTCTCCCAGCTGATGAATTGATTGTGTCGAGTAAACAAATTTTCCTAATCTTTCTGTTCAAGCGCCATCTAC” was 3.72; that for “GATGATTGTTCTCCCAGCTGATGAATTGAACTAATCGAGTAAACAAATTTTCCTAATCTTTCTGTTCAAGCGCCATCTAC” was 0.282; that for “GATGATTGTTCTCCCAGCTGATGAATTGAGAAAATCGAGTAAACAAATTTTCCTAATCTTTCTGTTCAAGCGCCATCTAC” was 0.138.
For the sequence “GATGATTGTTCTCCCAGCTGATGAATTCCTGTGGTCGAGTAAACAAATTTTCCTAATCTTTCTGTTCAAGCGCCATCTAC”, the binding signal (RPM ratio (pull-down/input)) was 0.303.
The value for “GATGATTGTTCTCCCAGCTGATGAATTCATTAGGTCGAGTAAACAAATTTTCCTAATCTTTCTGTTCAAGCGCCATCTAC” was 0.554; that for “GATGATTGTTCTCCCAGCTGATGAATTATGACACTCGAGTAAACAAATTTTCCTAATCTTTCTGTTCAAGCGCCATCTAC” was 2.61; that for “GATGATTGTTCTCCCAGCTGATGAATTCTATTCGTCGAGTAAACAAATTTTCCTAATCTTTCTGTTCAAGCGCCATCTAC” was 0.615.
The value for “GATGATTGTTCTCCCAGCTGATGAATTTAGACGGTCGAGTAAACAAATTTTCCTAATCTTTCTGTTCAAGCGCCATCTAC” was 0.295.
The value for “GATGATTGTTCTCCCAGCTGATGAATTCGGCCGTTCGAGTAAACAAATTTTCCTAATCTTTCTGTTCAAGCGCCATCTAC” was 0.768.
As for “GATGATTGTTCTCCCAGCTGATGAATTCGGAGCGTCGAGTAAACAAATTTTCCTAATCTTTCTGTTCAAGCGCCATCTAC”, the binding signal (RPM ratio (pull-down/input)) came to 0.401.
The value for “GATGATTGTTCTCCCAGCTGATGAATTTGACAGTTCGAGTAAACAAATTTTCCTAATCTTTCTGTTCAAGCGCCATCTAC” was 0.622; that for “GATGATTGTTCTCCCAGCTGATGAATTGCAGCAATCGAGTAAACAAATTTTCCTAATCTTTCTGTTCAAGCGCCATCTAC” was 2.72.
Consider “GATGATTGTTCTCCCAGCTGATGAATTCCTCGGTTCGAGTAAACAAATTTTCCTAATCTTTCTGTTCAAGCGCCATCTAC”, for which the binding signal (RPM ratio (pull-down/input)) is 0.27.
On to “GATGATTGTTCTCCCAGCTGATGAATTCCACTAGTCGAGTAAACAAATTTTCCTAATCTTTCTGTTCAAGCGCCATCTAC”, for which the binding signal (RPM ratio (pull-down/input)) turned out to be 0.307.
The value for “GATGATTGTTCTCCCAGCTGATGAATTTCACCCGTCGAGTAAACAAATTTTCCTAATCTTTCTGTTCAAGCGCCATCTAC” was 0.289; that for “GATGATTGTTCTCCCAGCTGATGAATTATCATACTCGAGTAAACAAATTTTCCTAATCTTTCTGTTCAAGCGCCATCTAC” was 0.447.
Consider “GATGATTGTTCTCCCAGCTGATGAATTGGATTTGTCGAGTAAACAAATTTTCCTAATCTTTCTGTTCAAGCGCCATCTAC”, for which the binding signal (RPM ratio (pull-down/input)) came out at 1.72.
